This experiment has as its target T1, Purified α5β1 integrin (UniProt P08648 42-1049; P05556).
T1 construct: integrin alpha-5 subunit; integrin beta-1 subunit; As far as I recall this product is purified from human tissue; also called integrin α5β1; source: bought: Merck Millipore (CC1052), purified, octyl‐β‐D‐glucopyranoside formulation
Description: SPR; BIACORE X, CM5; NRP-1 immobilised by amine coupling; analyte in HEPES-buffered saline (10 mM HEPES pH 7.4, 150 mM NaCl, 0.005% P20); global 1:1 Langmuir fit. Particulars: both partners purified.

B1: Recombinant human NRP‐1 (receptor)
chain: not shown
notes: Neuropilin-1, human, recombinant soluble protein; see the vendor's datasheet (as far as I recall an extracellular fragment with a C-terminal His tag); also called Neuropilin‐1; soluble NRP‐1; source: bought: R&D Systems (3870‐N1)
B1: the affinity, expressed as Kd, was 14 ± 4 nM; the koff (commonly the first-order rate constant of dissociation) turned out to be 0.00029 s⁻¹; the kon – broadly, a measure of how fast the partners come together – is 21000 M⁻¹ s⁻¹.

These data come from paper PMC9290910, “Neuropilin‐1 is required for endothelial cell adhesion to soluble vascular endothelial growth factor receptor 1” (The Febs Journal, 2021).
